# Experimental data as given in the supplement of paper PMC8728848.
# Some of the results follow.
# What was measured:
# Test in all cases: glycan array binding signal (z-score within array); higher = stronger binding
# Details in all cases: glycan notation: IUPAC condensed, linker removed
# Neu5Ac(a2-3)GalNAc = target: Neu5Ac(a2-3)GalNAc
# Outline: (§1)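 Glycan array data were curated from 3228 arrays in the Consortium for Functional Glycomics database and kept only where the protein sequence was available. Glycan names were converted to IUPAC-condensed notation, and columns mapping to the same glycan were averaged. The binding signal is a within-array Z-score, averaged across arrays of the same protein sequence at different concentrations or buffers and across linkers. Negative Z-scores can be read as non-binding.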
# [1] = target: Neu5Ac(a2-3)GalNAc(b1-4)GlcNAc
# Outline: as §1
# [2] = target: Neu5Ac(a2-3)[GalNAc(b1-4)]Gal(b1-4)Glc
# Outline: as §1
# [3] = target: Neu5Ac(a2-3)[GalNAc(b1-4)]Gal(b1-4)GlcNAc
# Outline: as §1
# [4] = target: Neu5Ac(a2-3)[GalNAc(b1-4)]Gal(b1-4)GlcNAc(b1-3)GalNAc
# Outline: as §1
# [5] = target: Neu5Ac(a2-3)[Neu5Ac(a2-6)]GalNAc
# Outline: as §1
# Neu5Ac(a2-6)Gal = target: Neu5Ac(a2-6)Gal
# Outline: as §1
# [6] = target: Neu5Ac(a2-6)Gal(b1-3)GlcNAc(b1-3)[Gal(b1-4)GlcNAc(b1-6)]Gal(b1-4)Glc
# Outline: as §1
# Neu5Ac(a2-6)Gal(b1-4)Glc = target: Neu5Ac(a2-6)Gal(b1-4)Glc
# Outline: as §1
# [7] = target: Neu5Ac(a2-6)Gal(b1-4)GlcNAc
# Outline: as §1
# [8] = target: Neu5Ac(a2-6)Gal(b1-4)GlcNAc(b1-2)Man
# Outline: as §1
# [9] = target: Neu5Ac(a2-6)Gal(b1-4)GlcNAc(b1-2)Man(a1-3)Man(b1-4)GlcNAc(b1-4)GlcNAc
# Outline: as §1
# [10] = target: Neu5Ac(a2-6)Gal(b1-4)GlcNAc(b1-2)Man(a1-3)[Gal(b1-4)GlcNAc(b1-2)Man(a1-6)]Man(b1-4)GlcNAc(b1-4)GlcNAc
# Outline: as §1
# [11] = target: Neu5Ac(a2-6)Gal(b1-4)GlcNAc(b1-2)Man(a1-3)[GlcNAc(b1-2)Man(a1-6)]Man(b1-4)GlcNAc(b1-4)GlcNAc
# Outline: as §1
# [12] = target: Neu5Ac(a2-6)Gal(b1-4)GlcNAc(b1-2)Man(a1-3)[GlcNAc(b1-4)][Neu5Ac(a2-6)Gal(b1-4)GlcNAc(b1-2)Man(a1-6)]Man(b1-4)GlcNAc(b1-4)GlcNAc
# Outline: as §1
# [13] = target: Neu5Ac(a2-6)Gal(b1-4)GlcNAc(b1-2)Man(a1-3)[Man(a1-6)]Man(b1-4)GlcNAc(b1-4)GlcNAc
# Outline: as §1
# [14] = target: Neu5Ac(a2-6)Gal(b1-4)GlcNAc(b1-2)Man(a1-3)[Neu5Ac(a2-3)Gal(b1-4)GlcNAc(b1-2)Man(a1-6)]Man(b1-4)GlcNAc(b1-4)GlcNAc
# Outline: as §1
# [15] = target: Neu5Ac(a2-6)Gal(b1-4)GlcNAc(b1-2)Man(a1-3)[Neu5Ac(a2-6)Gal(b1-4)GlcNAc(b1-2)Man(a1-6)]Man(b1-4)GlcNAc(b1-4)GlcNAc
# Outline: as §1
# [16] = target: Neu5Ac(a2-6)Gal(b1-4)GlcNAc(b1-2)Man(a1-3)[Neu5Ac(a2-6)Gal(b1-4)GlcNAc(b1-2)Man(a1-6)]Man(b1-4)GlcNAc(b1-4)[Fuc(a1-6)]GlcNAc
# Outline: as §1
# [17] = target: Neu5Ac(a2-6)Gal(b1-4)GlcNAc(b1-2)Man(a1-6)Man(b1-4)GlcNAc(b1-4)GlcNAc
# Outline: as §1
# [18] = target: Neu5Ac(a2-6)Gal(b1-4)GlcNAc(b1-2)Man(a1-6)[Gal(b1-4)GlcNAc(b1-2)Man(a1-3)]Man(b1-4)GlcNAc(b1-4)GlcNAc
# Outline: as §1
# [19] = target: Neu5Ac(a2-6)Gal(b1-4)GlcNAc(b1-2)Man(a1-6)[GlcNAc(b1-2)Man(a1-3)]Man(b1-4)GlcNAc(b1-4)GlcNAc
# Outline: as §1
# [20] = target: Neu5Ac(a2-6)Gal(b1-4)GlcNAc(b1-2)Man(a1-6)[Man(a1-3)]Man(b1-4)GlcNAc(b1-4)GlcNAc
# Outline: as §1
# [21] = target: Neu5Ac(a2-6)Gal(b1-4)GlcNAc(b1-2)[Neu5Ac(a2-6)Gal(b1-4)GlcNAc(b1-4)]Man(a1-3)[GlcNAc(b1-4)][Neu5Ac(a2-6)Gal(b1-4)GlcNAc(b1-2)[Neu5Ac(a2-6)Gal(b1-4)GlcNAc(b1-6)]Man(a1-6)]Man(b1-4)GlcNAc(b1-4)GlcNAc
# Outline: as §1
# [22] = target: Neu5Ac(a2-6)Gal(b1-4)GlcNAc(b1-2)[Neu5Ac(a2-6)Gal(b1-4)GlcNAc(b1-4)]Man(a1-3)[GlcNAc(b1-4)][Neu5Ac(a2-6)Gal(b1-4)GlcNAc(b1-4)Man(a1-6)]Man(b1-4)GlcNAc(b1-4)GlcNAc
# Outline: as §1
# [23] = target: Neu5Ac(a2-6)Gal(b1-4)GlcNAc(b1-2)[Neu5Ac(a2-6)Gal(b1-4)GlcNAc(b1-6)]Man(a1-6)[Neu5Ac(a2-6)Gal(b1-4)GlcNAc(b1-2)Man(a1-3)][GlcNAc(b1-4)]Man(b1-4)GlcNAc(b1-4)GlcNAc
# Outline: as §1
# [24] = target: Neu5Ac(a2-6)Gal(b1-4)GlcNAc(b1-3)Gal(b1-3)GlcNAc
# Outline: as §1
# [25] = target: Neu5Ac(a2-6)Gal(b1-4)GlcNAc(b1-3)Gal(b1-4)GlcNAc
# Outline: as §1
# [26] = target: Neu5Ac(a2-6)Gal(b1-4)GlcNAc(b1-3)Gal(b1-4)GlcNAc(b1-2)Man(a1-3)[Neu5Ac(a2-6)Gal(b1-4)GlcNAc(b1-3)Gal(b1-4)GlcNAc(b1-2)Man(a1-6)]GalNAc
# Outline: as §1
# [27] = target: Neu5Ac(a2-6)Gal(b1-4)GlcNAc(b1-3)Gal(b1-4)GlcNAc(b1-3)Gal(b1-4)GlcNAc
# Outline: as §1
# [28] = target: Neu5Ac(a2-6)Gal(b1-4)GlcNAc(b1-3)Gal(b1-4)GlcNAc(b1-3)Gal(b1-4)GlcNAc(b1-2)Man(a1-3)[Neu5Ac(a2-6)Gal(b1-4)GlcNAc(b1-3)Gal(b1-4)GlcNAc(b1-3)Gal(b1-4)GlcNAc(b1-2)Man(a1-6)]GalNAc
# Outline: as §1
# [29] = target: Neu5Ac(a2-6)Gal(b1-4)GlcNAc(b1-3)Gal(b1-4)GlcNAc(b1-3)GalNAc
# Outline: as §1
# [30] = target: Neu5Ac(a2-6)Gal(b1-4)GlcNAc(b1-3)Gal(b1-4)GlcNAc(b1-3)[Neu5Ac(a2-6)Gal(b1-4)GlcNAc(b1-3)Gal(b1-4)GlcNAc(b1-6)]GalNAc
# Outline: as §1
# [31] = target: Neu5Ac(a2-6)Gal(b1-4)GlcNAc(b1-3)Gal(b1-4)GlcNAc(b1-6)[Gal(b1-3)]GalNAc
# Outline: as §1
# [32] = target: Neu5Ac(a2-6)Gal(b1-4)GlcNAc(b1-3)Gal(b1-4)[Fuc(a1-3)]GlcNAc(b1-3)Gal(b1-4)[Fuc(a1-3)]GlcNAc
# Outline: as §1
# [33] = target: Neu5Ac(a2-6)Gal(b1-4)GlcNAc(b1-3)GalNAc
# Outline: as §1
# [34] = target: Neu5Ac(a2-6)Gal(b1-4)GlcNAc(b1-3)[Neu5Ac(a2-6)Gal(b1-4)GlcNAc(b1-6)]GalNAc
# Outline: as §1
binder,measurement,setting,value
SP8524D-bot-399-27-399 (Bacteroides ovatus) (protein) DAKYDTLDTHAYIEEALSSTSQKVTVQATGESFTTLNVHLSNLSSTDNHYKLVTDQSVLDTYNHINGTGYIMLPKDYYTLPETITVKAGQYAADALSIALKAFSQEMMKSGESYALPVKLVLQDGSISPMENTGTFVILAESIIEFSAPMFVGAPSLKANKFTESPETYSQYTIEVRFQVANTADRDRAVFKNGGDDANFILLRFEDPQSDNENYKAHSLVQIVGRNRLYLNPSNSFKPNEWQHLALVCDGSNYRLYINGVDSGVLSIPTGATTFSDVNWFCLGDDSYSRWGNCKILMSEARIWSVVRSASQIQNNMTQVSPKSVGLEAYWRFNEGQGNVFEDATGKGHTLTTSATPTWIDGILSTDKSTEWK,glycan array binding signal (z-score),Neu5Ac(a2-3)GalNAc,-0.038
same,glycan array binding signal (z-score),[1],-0.22
same,glycan array binding signal (z-score),[2],0
same,glycan array binding signal (z-score),[3],-0.104
same,glycan array binding signal (z-score),[4],0.38
same,glycan array binding signal (z-score),[5],-0.002
same,glycan array binding signal (z-score),Neu5Ac(a2-6)Gal,-0.011
same,glycan array binding signal (z-score),[6],-0.08
same,glycan array binding signal (z-score),Neu5Ac(a2-6)Gal(b1-4)Glc,0.276
same,glycan array binding signal (z-score),[7],-0.31
same,glycan array binding signal (z-score),[8],-0.111
same,glycan array binding signal (z-score),[9],-0.221
same,glycan array binding signal (z-score),[10],-0.299
same,glycan array binding signal (z-score),[11],-0.361
same,glycan array binding signal (z-score),[12],0.589
same,glycan array binding signal (z-score),[13],-0.158
same,glycan array binding signal (z-score),[14],-0.148
same,glycan array binding signal (z-score),[15],-0.165
same,glycan array binding signal (z-score),[16],0.024
same,glycan array binding signal (z-score),[17],-0.38
same,glycan array binding signal (z-score),[18],-0.328
same,glycan array binding signal (z-score),[19],-0.183
same,glycan array binding signal (z-score),[20],0.215
same,glycan array binding signal (z-score),[21],-0.68
same,glycan array binding signal (z-score),[22],0.44
same,glycan array binding signal (z-score),[23],-0.281
same,glycan array binding signal (z-score),[24],-0.197
same,glycan array binding signal (z-score),[25],-0.179
same,glycan array binding signal (z-score),[26],0.437
same,glycan array binding signal (z-score),[27],-0.075
same,glycan array binding signal (z-score),[28],0.088
same,glycan array binding signal (z-score),[29],-0.398
same,glycan array binding signal (z-score),[30],-0.021
same,glycan array binding signal (z-score),[31],-0.586
same,glycan array binding signal (z-score),[32],-0.049
same,glycan array binding signal (z-score),[33],-0.138
same,glycan array binding signal (z-score),[34],-0.217
